# Measurements: article PMC4336329 (PLoS ONE, 2015)
# Hit rate of the full screen: of about 310,000 compounds, about 14,000 (4.5%) showed an effect of 50% or more. The effect is printed as a negative number. This is one part of the list.
# Target: human ether-à-go-go-related gene (hERG) potassium channel (human, UniProt Q12809)
# Assay: primary screen, population patch clamp on CHO cells stably expressing hERG
# 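Note: peak tail current of the secondary pulse compared with the same well before compound.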
# Chain of human ether-à-go-go-related gene (hERG) potassium channel (Q12809 whole entry, looked up): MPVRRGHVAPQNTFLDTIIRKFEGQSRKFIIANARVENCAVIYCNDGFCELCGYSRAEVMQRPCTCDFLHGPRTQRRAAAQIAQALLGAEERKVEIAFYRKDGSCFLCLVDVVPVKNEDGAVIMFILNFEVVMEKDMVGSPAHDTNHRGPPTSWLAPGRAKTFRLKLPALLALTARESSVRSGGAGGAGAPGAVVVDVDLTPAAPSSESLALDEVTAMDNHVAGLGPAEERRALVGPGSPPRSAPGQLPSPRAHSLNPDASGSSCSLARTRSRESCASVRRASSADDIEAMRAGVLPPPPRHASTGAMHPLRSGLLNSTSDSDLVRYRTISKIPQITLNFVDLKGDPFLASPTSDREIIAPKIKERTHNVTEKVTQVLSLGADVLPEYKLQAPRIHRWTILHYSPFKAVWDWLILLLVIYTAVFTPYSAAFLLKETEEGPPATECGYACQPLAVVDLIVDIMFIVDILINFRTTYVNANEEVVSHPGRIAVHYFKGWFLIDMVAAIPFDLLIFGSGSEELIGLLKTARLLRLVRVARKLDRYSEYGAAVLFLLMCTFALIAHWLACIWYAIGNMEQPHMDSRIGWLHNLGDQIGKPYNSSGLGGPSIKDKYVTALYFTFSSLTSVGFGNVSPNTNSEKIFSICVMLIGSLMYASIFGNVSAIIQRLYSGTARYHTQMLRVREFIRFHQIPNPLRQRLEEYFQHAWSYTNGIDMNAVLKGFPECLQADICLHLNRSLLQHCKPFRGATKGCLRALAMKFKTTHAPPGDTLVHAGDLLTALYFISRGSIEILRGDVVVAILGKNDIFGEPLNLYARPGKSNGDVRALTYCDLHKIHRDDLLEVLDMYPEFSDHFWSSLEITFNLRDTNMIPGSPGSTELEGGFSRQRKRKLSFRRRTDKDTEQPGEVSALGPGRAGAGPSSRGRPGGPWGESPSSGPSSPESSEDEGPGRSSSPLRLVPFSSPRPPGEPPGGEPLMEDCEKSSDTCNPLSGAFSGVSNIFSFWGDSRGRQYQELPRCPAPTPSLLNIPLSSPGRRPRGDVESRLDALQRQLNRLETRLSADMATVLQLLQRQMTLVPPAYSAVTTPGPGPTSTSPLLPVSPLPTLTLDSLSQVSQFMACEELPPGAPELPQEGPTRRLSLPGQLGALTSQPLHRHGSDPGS
row,Structure (SMILES),"hERG current change (%, negative = inhibition) at 10uM [%]"
1,CN1CCN(C(=S)NC(=O)c2ccccc2Br)CC1,11.2
2,COc1cccc(/C=N/Nc2nc3ccccc3[nH]2)c1OC,16.6
3,CC(=O)c1ccc(N2CCN(CC(=O)NC(=O)NCc3ccccc3)CC2)cc1,3.62
4,CCn1c(Cn2nnc(-c3ccccc3)n2)nnc1SCC(=O)Nc1cccc(C)c1C,-29.8
5,N#C/C(=C/c1ccc(N2CCOCC2)c([N+](=O)[O-])c1)C(N)=O,-39.8
6,Cc1ccc(C)c(NC(=O)c2nc(Cl)ccc2Cl)c1,15
7,O=C(NC1CCCCC1NC(=O)c1ccco1)c1ccco1 (stereo not shown),13
8,CC(NC(=O)CCc1nnc(Cc2cccc(C(F)(F)F)c2)o1)C1CC1 (stereo not shown),6.51
9,CC(=O)c1cccc(S(=O)(=O)N2CCCC(c3nc(-c4ccc(C)o4)no3)C2)c1 (stereo not shown),-33.3
10,CCC(=O)Nc1cc2nn(-c3ccccc3)nc2cc1Cl,5.35
11,O=C(NCc1ccc(F)cc1)C1CCCN(S(=O)(=O)c2cccnc2)C1 (stereo not shown),-12.1
12,Cc1csc(=O)n1CC(=O)OCC(=O)NCc1ccc(F)cc1,6.31
13,CCCC(C)C(=O)NCc1ccc2c(c1)OCO2 (stereo not shown),13.8
14,C=CCn1c(O)c(C(C)=NCCc2c[nH]c3ccccc23)c(=O)[nH]c1=O,-31.9
15,Cc1oc2c(cc(NS(=O)(=O)c3ccc(Cl)cc3)c3ccccc32)c1C(=O)O,9.18
16,O=C(CCN1C(=O)C2C3C=CC(C3)C2C1=O)N1CCN(c2ccccc2Cl)CC1 (stereo not shown),-57.2
17,CCN(CC)CCC(=O)N1c2ccccc2Sc2ccc(NC(=O)OC)cc21,-34.8
18,COc1ccc(-c2csc3ncnc(N4CCN(S(=O)(=O)c5ccccc5C#N)CC4)c23)cc1,7.42
19,O=C(C[n+]1cc(Br)cc(Br)c1)c1cccc([N+](=O)[O-])c1.[Cl-],-8.4
20,COC(=O)Cn1c(=NC(=O)c2cccc(OC)c2)sc2cc(OC)ccc21,-1.13
21,COc1ccc(/C=N/S(=O)(=O)c2cccs2)cc1,5.1
22,Cc1ccc(C2=N/C(=C\c3cccs3)C(=O)N2Nc2ccccc2)cc1,11.7

row,Structure (SMILES),"hERG current change (%, negative = inhibition) at 10uM [%]"
1,c1ccc(-c2onc3c2CCCC3)cc1,-8.78
2,Cc1oc(-c2ccccc2Cl)nc1CS(=O)CC(=O)NC1CC1 (stereo not shown),7.58
3,O=C(O)c1ccc(Cl)c(S(=O)(=O)N(Cc2ccccc2)c2ccccc2Cl)c1,15.4
4,CCn1c(=O)cc(SCC(=O)NCc2ccco2)c2ccccc21,-22.3
5,COc1ccc(C(C)C)cc1S(=O)(=O)Nc1ccccn1,-5.43
6,COC(=O)CNC(=O)C1Nc2ccc(OC(F)(F)F)cc2C2C=CCC12 (stereo not shown),-3.38
7,CN(C)C1=NC[C@H](Cc2ccccc2)N1CCCC1CCCC1,-71.2
8,CC(C)(C)[C@@H]1C=C(C(=O)O)O[C@H](OCCCCO)C1,10.8
9,COc1cccc(C2CC(c3ccccc3Cl)n3nnnc3N2)c1 (stereo not shown),-12.1
10,O=C(Nc1ccc(S(=O)(=O)N2CCCCC2)cc1)c1ccc(=O)[nH]c1,7.49
11,O=C(O)/C=C/c1ccc(S(=O)(=O)NCc2ccco2)cc1,6.64
12,Cc1ccc(C(C)C)c(OCCNCc2ccccc2)c1.O=C(O)C(=O)O,19.2
13,COCCNC(=S)N1CCN(c2nc3ccccc3s2)CC1,1.16
14,O=C(O)c1cc2cc(OCc3ccccc3)ccc2[nH]1,7.37
15,CN1C(=O)C(=Cc2cccnc2)C(=O)N(C)C1=O,9.85
16,NNC(=O)c1ccc(COc2ccc3ccccc3c2)cc1,8
17,CC(=O)c1cn(Cc2ccc(C#N)cc2)c2ccccc12,-19.9
18,N#CC1(NC(=O)CSc2nnc(-c3ccccc3F)n2N)CCCCC1,1.29
19,COC(=O)c1sccc1NC(=O)CSc1ccccc1NS(=O)(=O)c1ccccc1Cl,8.23
20,CCc1nc2n(n1)C(O)c1cc([N+](=O)[O-])ccc1S2 (stereo not shown),-5.21
21,Cc1ccnc(NS(=O)(=O)c2ccc(NC(=O)c3ccc([N+](=O)[O-])s3)cc2)n1,-7.64
22,CCOc1ccccc1C1C(C(N)=O)=C(C)Nc2nc(-c3ccc(OC)cc3)nn21 (stereo not shown),0.518

row,Structure (SMILES),"hERG current change (%, negative = inhibition) at 10uM [%]"
1,Cc1ccc2nc(C)c(C(=O)N/N=C/c3cccs3)cc2c1,-8.89
2,CN(C)CCc1nc2ccccc2c(=O)n1-c1ccccc1.Cl,-12.6
3,COc1ccc2c(C(F)(F)F)cc(=O)oc2c1C,3.45
4,CN(C)c1ncnc2c1ncn2C1OC(CO)C(O)C1O (stereo not shown),13.9
5,COc1cc2nc(N(CCCN(C)C)C(=O)c3ccc(S(=O)(=O)N(C)C4CCCCC4)cc3)sc2cc1OC.Cl,-51.6
6,COc1cccc(C(=O)Nc2ccccc2NC(=O)c2cccc(OC)c2)c1,-9.29
7,COC(=O)c1c(C(=O)OC)c2n(c1C)CCS2,3.54
8,C/C(Cn1cnc([N+](=O)[O-])n1)=N\NC(=O)c1ccccc1,11.6
9,O=C(/C(=C(/[O-])c1ccccc1)[n+]1ccccc1)c1ccc([N+](=O)[O-])cc1,6.47
10,Cc1ccc(S(=O)(=O)NCCC(=O)NCC(c2cccs2)N(C)C)cc1C (stereo not shown),7.24
11,COc1ccc(-n2nc(C(=O)N3CCC(C#N)CC3)c3c4ccccc4n(C)c3c2=O)cc1,-55.5
12,O=C(CN1CCN(C(=O)c2ccco2)CC1)NCc1ccc(Cl)cc1,-64.4
13,O=C(NCc1cccnc1)c1cnn2ccccc12,11.5
14,CSc1nc2sc3c(c2c(=O)[nH]1)CCc1ccccc1-3,-1.75
15,CCOc1ccc(C2c3[nH]c4ccccc4c3C[C@H]3C(=O)N(C4CC4)CC(=O)N23)cc1OC (stereo partly shown),-15.2
16,O=C1COc2ccc(C(=O)COC(=O)c3ccco3)cc2N1,3.46
17,COc1cccc(=O)c2c(C)n(-c3ccc(C(=O)O)cc3)c(C)c12,6.33
18,Cc1cc(=O)oc2cc(OCCSCCN3CCCCC3)ccc12,-16.5
19,COC(=O)c1ccc(NC(=O)CSCc2ccc(C)cc2)cc1,-3.62
20,COc1ccc(CCNC(=O)C(C)Sc2ccc(C)cc2)cc1OC (stereo not shown),-9.5
21,CC1CCCN(C2=C(Cl)C(=O)N(c3cccc(Cl)c3)C2=O)C1 (stereo not shown),-27.4
22,CN(/N=C/c1ccc(-c2ccc([N+](=O)[O-])cc2)o1)c1ccccc1,9.11

row,Structure (SMILES),"hERG current change (%, negative = inhibition) at 10uM [%]"
1,CCn1c2ccccc2c2cc(NC(=O)CSc3nnc(-c4cccc(F)c4)o3)ccc21,-0.775
2,O=C(CSc1ncc(-c2ccccc2)n1CC1CCCO1)N1CCCCC1 (stereo not shown),10.1
3,CN(C)S(=O)(=O)c1ccc(S(=O)(=O)N(CC(=O)Nc2ccccc2)Cc2ccco2)cc1,10.6
4,CCc1cc2c3c([nH]c2cc1S(=O)(=O)N1CCC2(CC1)OCCO2)CCCC3=O,16.8
5,COc1ccccc1-c1nn(Cc2ccccc2)cc1C(=O)NCC(c1ccco1)N1CCCC1 (stereo not shown),-64
6,Cc1onc(-c2ccccc2)c1C(=O)OCC(=O)Nc1ccc(C#N)cc1,-27.7
7,O=C(CC1(O)C(=O)N(CCc2ccccc2)c2ccccc21)c1ccccn1 (stereo not shown),13.5
8,Cc1cc(C(=O)Cn2cnc3cc([N+](=O)[O-])ccc3c2=O)c(C)n1CC1CCCO1 (stereo not shown),-17.7
9,COC(=O)c1ccc(CN(c2ccc(C)cc2)S(=O)(=O)c2ccc3c(c2)OCCO3)o1,8.39
10,COCCN(C(=O)CSc1n[nH]c(-c2ccccc2)n1)c1c(N)n(CC(C)C)c(=O)[nH]c1=O,22.6
11,COc1ccc(C2(C)NC(=O)NC2=O)cc1OC (stereo not shown),10.3
12,CC1=CC(=O)C=C(C)C1=NOc1ccccc1[N+](=O)[O-],12.8
13,CC(Nc1cc(N2CCN(S(=O)(=O)N(C)C)CC2)ccc1[N+](=O)[O-])c1ccccc1 (stereo not shown),7.88
14,CC1CCCCN1S(=O)(=O)c1ccc(NC(=O)c2ccco2)cc1 (stereo not shown),-18
15,COC(=O)c1sccc1N/N=C/c1cccc(OC)c1O,5.91
16,CCOC(=O)c1ccccc1NC(=O)COC(=O)C1CC(=O)N(c2ccc3c(c2)OCCO3)C1 (stereo not shown),38.8
17,COc1ccc(C(C)C)cc1S(=O)(=O)Nc1ccncc1,15.1
18,CC(=O)Nc1ccc2oc(C)nc2c1,24.6
19,Cc1ccc(-c2nc3ccccc3[nH]2)cc1N,-1.81
20,COCCN(CCOC)S(=O)(=O)c1ccc(C(=O)Nc2nc3c(s2)CCc2ccccc2-3)cc1,11.9
21,Nc1ncnc2nc[nH]c12.O=S(=O)(O)O,7.63
22,Cc1cc(C(=O)COC(=O)c2cccc(O)c2)c(C)n1C1CC1,6.32
